# Measured values taken from PubChem BioAssay (Tox21).
# Inconclusive results, whose numbers are uncertain, are shown with a selection of clear calls. Potencies of inconclusive entries are left out as doubtful fits. Active and inactive are the calls of the source. Calls come from the whole dose curve; as a rule, active = well fitted curve in the direction sought with a large enough effect in the repeat runs; inconclusive = weak or mixed curves; inactive = no such curve, though single readings can be large; an effect the other way counts as inactive or inconclusive.
# Test: qHTS RealTime-Glo MT Cell Viability Assay in HepG2 cells - 24 hour (AID 1224867)
# Details: RealTime-Glo luminescence; series mostly up to 76.8 µM
# How it was run: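 Cell number in HepG2 cultures estimated from NanoLuc luminescence generated by metabolic reduction of a prosubstrate by living cells. The homogeneous, nonlytic format allowed repeated reads at 0, 8, 16, 24, 32 and 40 h of compound exposure.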
# Note: nearly all actives have a fitted effect of over 50% in size.
# Potency is the fitted concentration of half-maximal effect; tags give direction and shape of the fitted curve.
row,Structure (SMILES),Potency
1,COc1cc(-c2ccc(N=C=O)c(OC)c2)ccc1N=C=O,inactive
2,CCOC(=O)O[C@]1(C(=O)OCCl)CC[C@H]2[C@@H]3CCC4=CC(=O)C=C[C@]4(C)[C@H]3[C@@H](O)C[C@@]21C,"inconclusive [falling, partial curve, poor fit]"
3,CCC/C=C/C=O,inactive
4,CO[C@@]12[C@H](COC(N)=O)C3=C(C(=O)C(C)=C(N)C3=O)N1C[C@@H]1N[C@@H]12,active: 6.01 µM
5,CC[C@H](NC(=O)c1cc(F)ccc1NS(=O)(=O)c1cccc2cccnc12)c1ccccc1,active: 52 µM
6,CCN(CC)C(=O)/C(C#N)=C/c1cc(O)c(O)c([N+](=O)[O-])c1,inactive
7,COC(=O)C1=C(C)NC(C)=C(C(=O)OC(C)(C)CN(C)CCC(c2ccccc2)c2ccccc2)C1c1cccc([N+](=O)[O-])c1 (stereo unspecified),"inconclusive [falling, partial curve]"
8,Nc1cccc2c(N)cccc12,"inconclusive [phenotype inactive, partial curve]"
9,CCCCCCCC/C=C\CCCCCCCCN,"inconclusive [falling, single point]"
10,Fc1ccc([C@@H]2CCNC[C@H]2COc2ccc3c(c2)OCO3)cc1,"inconclusive [falling, single point]"
11,c1cc(N(CC2CO2)CC2CO2)ccc1Cc1ccc(N(CC2CO2)CC2CO2)cc1 (stereo unspecified),"inconclusive [falling, single point]"
12,O=C1C=CC(=O)N1c1cccc(N2C(=O)C=CC2=O)c1,active: 15.5 µM
13,O=C(/C=C/c1ccc([N+](=O)[O-])cc1)c1ccccc1,"inconclusive [falling, full curve]"
14,COC(=O)C1=C(C)NC(C)=C(C(=O)OCCN2CCN(C(c3ccccc3)c3ccccc3)CC2)C1c1cccc([N+](=O)[O-])c1 (stereo unspecified),"inconclusive [falling, partial curve]"
15,CCCCCCC[N+](CC)(CC)CCCCc1ccc(Cl)cc1,"inconclusive [falling, partial curve]"

# Test: qHTS RealTime-Glo MT Cell Viability Assay in HEK293 cells - 32 hour (AID 1224868)
# Details: RealTime-Glo luminescence; series mostly up to 76.8 µM
# How it was run: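 Homogeneous bioluminescent viability format in HEK293 cells (600 cells/well). Following 5 h at 37 C/5% CO2, 23 nL compound was pintooled; the signal was measured repeatedly during 40 h incubation.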
row,Structure (SMILES),Potency
1,CCN(CC)CCCC(C)Nc1c2ccc(Cl)cc2nc2ccc(OC)cc12 (stereo unspecified),active: 2.68 µM
2,Cc1ccc(C(C)(C)C)cc1,"inconclusive [cytotoxic, partial curve, poor fit]"
3,CC1(C)CCC(C)(C)c2cc(NC(=O)c3ccc(C(=O)O)cc3)ccc21,"inconclusive [cytotoxic, single point]"
4,CC1=NC(C)OC1C (stereo unspecified),"inconclusive [rising, partial curve, poor fit]"
5,CCOC(=O)O[C@]1(C(=O)OCCl)CC[C@H]2[C@@H]3CCC4=CC(=O)C=C[C@]4(C)[C@H]3[C@@H](O)C[C@@]21C,"inconclusive [cytotoxic, partial curve, poor fit]"
6,c1ccc(C[P+](c2ccccc2)(c2ccccc2)c2ccccc2)cc1,active: 1.55 µM
7,CCN(CC)c1ccc2c(c1)Oc1cc(N(CC)CC)ccc1C21OC(=O)c2ccccc21,"inconclusive [cytotoxic, partial curve]"
8,CN1CCN(C2=Nc3cc(F)ccc3Cc3ccccc32)CC1,"inconclusive [rising, single point]"
9,Cc1c(C(=O)NN2CCCCC2)nn(-c2ccc(Cl)cc2Cl)c1-c1ccc(Cl)cc1,"inconclusive [cytotoxic, partial curve]"
10,CO[Si](OC)(OC)OC,"inconclusive [rising, partial curve, poor fit]"
11,CCCc1nc2c(C)cc(-c3nc4ccccc4n3C)cc2n1Cc1ccc(-c2ccccc2C(=O)O)cc1,"inconclusive [cytotoxic, partial curve]"
12,CCN(CC)C(=O)/C(C#N)=C/c1cc(O)c(O)c([N+](=O)[O-])c1,"inconclusive [rising, single point]"
13,Nc1cccc2c(N)cccc12,"inconclusive [rising, partial curve]"
14,Nc1ccc2c3c(cccc13)-c1ccccc1-2,active: 24.8 µM
15,CCCCCCCC/C=C\CCCCCCCCN,active: 23.9 µM
16,CC1=CC(=O)CC(C)(C)C1,"inconclusive [cytotoxic, single point]"

row,Structure (SMILES),Potency
1,Fc1ccc([C@@H]2CCNC[C@H]2COc2ccc3c(c2)OCO3)cc1,"inconclusive [cytotoxic, single point]"
2,CCN1CCOCC1,inactive
3,O=C1NC(=O)[C@@H]2CC=CC[C@H]12,inactive
4,O=C(O)CCCCCCCCCCCC(=O)O,"inconclusive [cytotoxic, partial curve]"
5,CCCCCCCCCCCCCCCO,"inconclusive [cytotoxic, single point]"
6,Cc1[nH]cnc1C[C@H]1CCc2c(C)c3ccccc3n2C1=O,active: 23.9 µM
7,CCCCCCCCCCCC(=O)OCC(C)OC(=O)CCCCC(=O)O (stereo unspecified),inactive
8,CC(C)(C)CC(C)(C)c1ccc(OCCO)cc1,active: 5.46 µM
9,CCCCCCCCc1ccc(S(=O)(=O)O)cc1,inactive
10,C/C=C(C)/C=C/C=C(C)C,"inconclusive [rising, single point]"
11,O=S(=O)(c1ccc(OCc2ccccc2)cc1)c1ccccc1O,"inconclusive [cytotoxic, partial curve]"
12,C=C[Si](OC(C)=O)(OC(C)=O)OC(C)=O,inactive
13,O=C(/C=C/c1ccc([N+](=O)[O-])cc1)c1ccccc1,active: 24.6 µM
14,COC(=O)C1=C(C)NC(C)=C(C(=O)OCCN2CCN(C(c3ccccc3)c3ccccc3)CC2)C1c1cccc([N+](=O)[O-])c1 (stereo unspecified),"inconclusive [cytotoxic, partial curve, poor fit]"
15,COc1ccc(-c2cc(=S)ss2)cc1,"inconclusive [cytotoxic, partial curve, poor fit]"
